Data on 37 compounds can be found in the supplement of paper PMC9446081.

Hit rate of the full screen: of about 39,000 compounds, about 220 (0.56%) showed activity. The list shows a part of the results.
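Also: static incubation at 37 °C against the wild-type strain, values averaged over two biological replicates.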

This assay relates to Escherichia coli K-12 BW25113. As to the kind of experiment: relative growth (OD600 normalised to plate interquartile mean) (fraction); higher = less growth inhibition, active = 0.2 or less. The note with it: 50 µM; LB; incubation time: overnight (16-24 h).
Take `COC(=O)C(CC#Cc1ccc2c(c1)[C@]1(C(=O)N2)[C@H](c2ccc(O)cc2)N2[C@H](c3ccccc3)[C@H](c3ccccc3)OC(=O)[C@H]2[C@@H]1C(=O)NC[C@H](O)c1ccccc1)C(=O)OC`: the relative growth is inactive: 1.01.
With `C[C@H]1CN([C@@H](C)CO)C(=O)c2cc(NC(=O)Nc3ccc(C(F)(F)F)cc3)ccc2O[C@@H]1CN(C)S(C)(=O)=O`, the relative growth was inactive: 0.989.
Turning to `C[C@H](CO)N1C[C@H](C)[C@H](CN(C)S(=O)(=O)c2ccc(F)cc2)OCCCC[C@H](C)Oc2ccc(NS(=O)(=O)c3ccc(Cl)cc3)cc2C1=O`, the relative growth is inactive: 1.01.
The same measure for `CC(C)CC#Cc1cnc2c(c1)C(=O)N([C@H](C)CO)C[C@@H](C)[C@@H](CN(C)S(=O)(=O)c1cn(C)cn1)O2`: inactive: 0.998.
For `C[C@@H]1CN([C@H](C)CO)C(=O)c2cccc(NS(=O)(=O)c3ccc(F)cc3)c2O[C@@H]1CN(C)S(C)(=O)=O`, the relative growth is inactive: 1.
For the compound `O=C(C[C@H]1CC[C@@H]2[C@H](COC[C@H](O)CN2CC2CCOCC2)O1)N1CCOCC1`, the relative growth was inactive: 0.989.
`COC(=O)c1cn(CC(=O)N2CCOCC2)nn1`: the relative growth was inactive: 1.
Regarding `CC(C)(C)[S@](=O)N1Cc2cc(C(=O)N[C@@H]3CCN(Cc4ccccc4)C3)nc(-c3cccc(-c4ccncc4)c3)c2[C@@H]1CCO`, the relative growth was inactive: 0.996.
Regarding `O=C(C[C@@H]1CC[C@H](NC(=O)CN2CCOCC2)[C@H](CO)O1)NCCc1ccccc1`, the relative growth is inactive: 1.
With `[N-]=[N+]=Nc1ccccc1C[C@@]1(C(=O)N2CCCCC2)N=C(c2ccc(OCCCO)cc2)O[C@@H]1c1ccccc1`, the relative growth is inactive: 1.01.
Take `Cc1noc(C)c1NC(=O)N(C)C[C@@H]1Oc2ccc(NS(=O)(=O)c3cccs3)cc2CC(=O)N([C@@H](C)CO)C[C@H]1C`: the relative growth was inactive: 1.
For the compound `COC(=O)[C@@H]1C[C@H](C#N)N[C@@H]1c1ccccn1`, the relative growth was inactive: 0.936.
In the case of `C[C@@H]1CN([C@H](C)CO)C(=O)Cc2cc(NC(=O)Nc3ccc(F)cc3)ccc2O[C@@H]1CN(C)Cc1ccc(-c2ccccc2)cc1`, the relative growth was inactive: 0.951.
Take `C[C@@H]1CN([C@H](C)CO)C(=O)Cc2cc(NS(=O)(=O)c3ccc(Cl)cc3)ccc2O[C@@H]1CN(C)Cc1ccc(C(F)(F)F)cc1`: the relative growth is inactive: 1.04.
Take `C[C@@H]1CN([C@H](C)CO)S(=O)(=O)c2ccc(Br)cc2O[C@H]1CN(C)S(=O)(=O)c1ccccc1`: the relative growth was inactive: 1.03.
`C[C@H]1CN([C@@H](C)CO)C(=O)c2cccc(NC(=O)Nc3cccc4ccccc34)c2O[C@H]1CN(C)CC1CC1`: the relative growth was inactive: 0.98.
Regarding `C[C@H](CO)N1C[C@H](C)[C@H](CN(C)C(=O)NC2CCCC2)Oc2cc(-c3cncnc3)ccc2S1(=O)=O`, the relative growth is inactive: 0.987.
With `C[C@@H]1CCCCO[C@@H](CN(C)S(=O)(=O)c2ccc(F)cc2)[C@@H](C)CN([C@@H](C)CO)C(=O)c2cc(NC(=O)Nc3ccc(C(F)(F)F)cc3)ccc2O1`, the relative growth was inactive: 1.
Consider `C=C(C1=CCN(S(=O)(=O)c2ccc(C)cc2)C1)[C@@H](OC(C)=O)[C@@H]1CCCN1S(=O)(=O)c1ccccc1[N+](=O)[O-]`, for which the relative growth was inactive: 1.01.
In the case of `C[C@@H]1CN([C@@H](C)CO)C(=O)c2cc(NC(=O)CCC(F)(F)F)ccc2O[C@@H](C)CCCCO[C@H]1CN(C)C(=O)Nc1ccc(C(F)(F)F)cc1`, the relative growth is inactive: 1.02.
The same measure for `O=C(C[C@H]1CC[C@@H]2[C@H](COC[C@H](O)CN2S(=O)(=O)c2ccc(F)cc2)O1)N[C@@H]1CCN(Cc2ccccc2)C1`: inactive: 0.993; for `C[C@H]1CN([C@@H](C)CO)C(=O)c2cc(NC(=O)CCC(F)(F)F)ccc2O[C@H]1CN(C)Cc1ccc(Cl)c(Cl)c1`: inactive: 1.02; for `COc1ccc(CN(C)C[C@@H]2OCCCC[C@@H](C)Oc3ccc(NS(=O)(=O)c4ccc(F)cc4)cc3C(=O)N([C@@H](C)CO)C[C@H]2C)cc1`: inactive: 0.995.
With `C[C@H]1CN([C@@H](C)CO)C(=O)c2cc(Br)cnc2O[C@H]1CN(C)S(=O)(=O)c1ccccc1`, the relative growth was inactive: 1.01.
For the compound `C[C@@H]1CCCCO[C@@H](CN(C)Cc2ccccc2)[C@H](C)CN([C@H](C)CO)C(=O)c2cc(NS(=O)(=O)c3ccc(F)cc3)ccc2O1`, the relative growth is inactive: 1.
Consider `C[C@@H]1CCCCO[C@H](CN(C)C(=O)Nc2ccc(C(F)(F)F)cc2)[C@H](C)CN([C@@H](C)CO)C(=O)c2cc(NS(C)(=O)=O)ccc2O1`, for which the relative growth was inactive: 0.966.
As to `N[C@@H]1[C@H]2CN(c3nc4c(cc3F)c(=O)c(C(=O)O)cn4-c3ccc(F)cc3F)C[C@@H]12`, the relative growth is active: 0.0389.
Take `CCn1c(C)cc(C)c(C(=O)N2C[C@H]3C(=O)NC[C@@]3(C(=O)O)C2)c1=O`: the relative growth was inactive: 0.961.
As for `O=c1nc(N2CCc3ccccc3C2)cn[nH]1`, the relative growth is inactive: 1.03.
With `C[C@@H]1CN([C@H](C)CO)C(=O)CCCn2cc(nn2)CO[C@@H]1CN(C)C(=O)Nc1ccc(N2CCN(C)CC2)cc1`, the relative growth was inactive: 0.966.
With `Cc1ccc(S(=O)(=O)Nc2cccc3c2O[C@@H](CN(C)Cc2ccc(Oc4ccccc4)cc2)[C@H](C)CN([C@H](C)CO)C3=O)cc1`, the relative growth was inactive: 1.05.
Consider `COCCNC(=O)C[C@@H]1C[C@H]2c3cc(NC(=O)Nc4ccc(C(F)(F)F)cc4)ccc3O[C@H]2[C@H](CO)O1`, for which the relative growth is inactive: 0.95.
The figure for `COc1ccc(S(=O)(=O)N(C)C[C@H]2Oc3c(NS(=O)(=O)c4cccs4)cccc3C(=O)N([C@@H](C)CO)C[C@H]2C)cc1` is inactive: 1.03.
Take `Cc1noc(C)c1NC(=O)N(C)C[C@@H]1OCCCC[C@@H](C)Oc2ccc(NS(=O)(=O)c3ccccc3)cc2C(=O)N([C@H](C)CO)C[C@H]1C`: the relative growth was inactive: 1.
For `C[C@H]1CCCCO[C@H](CN(C)C(=O)NC2CCCCC2)[C@@H](C)CN([C@@H](C)CO)C(=O)c2cc(NC(=O)CCC(F)(F)F)ccc2O1`, the relative growth was inactive: 0.958.
For `COc1ccc(NC(=O)Nc2ccc3c(c2)CC(=O)N([C@@H](C)CO)C[C@H](C)[C@H](CN(C)Cc2ccc(Cl)c(Cl)c2)O3)cc1`, the relative growth was inactive: 1.03.
`C[C@H]1CN([C@@H](C)CO)S(=O)(=O)c2ccc(C#CCN(C)C)cc2O[C@@H]1CN(C)Cc1cccnc1`: the relative growth was inactive: 1.
